# Laboratory results as given in publication PMC6919601, “Identification of Plasmodium dipeptidyl aminopeptidase allosteric inhibitors by high throughput screening” (PLoS ONE, 2019).
# The whole screen tested about 110,000 compounds, of which about 230 (0.21%) showed an effect of 50% or more. The list shows a part of the results.
# Target: DPAP1 (Plasmodium falciparum, UniProt Q8IIJ9)
# Test: primary screen, percent inhibition; read by cleavage of a fluorogenic dipeptide substrate; higher = more effect of the substance
# Set-up: species or system P. falciparum D10 trophozoite lysates; single well
# 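Also: 30 min substrate incubation versus DMSO and 10 µM JCP410 controls.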
# Chain of DPAP1 (Q8IIJ9 whole entry, looked up): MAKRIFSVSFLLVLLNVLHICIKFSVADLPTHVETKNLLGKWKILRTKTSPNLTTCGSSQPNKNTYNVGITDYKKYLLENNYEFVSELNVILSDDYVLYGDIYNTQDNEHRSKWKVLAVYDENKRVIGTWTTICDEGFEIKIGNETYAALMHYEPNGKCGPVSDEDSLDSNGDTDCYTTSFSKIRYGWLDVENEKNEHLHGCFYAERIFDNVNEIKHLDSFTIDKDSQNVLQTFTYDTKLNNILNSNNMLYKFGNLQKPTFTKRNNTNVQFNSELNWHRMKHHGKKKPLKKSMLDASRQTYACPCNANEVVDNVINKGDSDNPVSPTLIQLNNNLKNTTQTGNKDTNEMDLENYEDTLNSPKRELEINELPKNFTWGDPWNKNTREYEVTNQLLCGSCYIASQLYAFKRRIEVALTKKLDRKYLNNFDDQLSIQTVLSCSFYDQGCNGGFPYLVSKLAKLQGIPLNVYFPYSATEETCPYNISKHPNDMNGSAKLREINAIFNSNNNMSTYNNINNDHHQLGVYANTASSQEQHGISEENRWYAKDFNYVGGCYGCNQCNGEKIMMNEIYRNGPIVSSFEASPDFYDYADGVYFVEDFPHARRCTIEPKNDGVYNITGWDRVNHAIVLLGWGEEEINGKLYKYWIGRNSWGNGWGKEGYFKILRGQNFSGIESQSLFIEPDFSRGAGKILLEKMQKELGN
row,Compound,% Inhibition @ 10 uM
1,Cc1ccc2cc(CNCC(C)O)c(O)nc2c1C (centres unmarked),-4.54%
2,Cc1cccc(NC(=O)/C=C\C(=O)O)c1,3.25%
3,Cc1nc2nc(CNC(=O)c3ccccc3)nn2c(C)c1CCC(=O)NC(C)C,-0.447%
4,O=C(NCCc1c[nH]cn1)c1ccc(Cn2c(SCc3ccc(F)cc3)nc3cccnc32)cc1,6.3%
5,COC(=O)c1cnn2c(C(F)(F)F)cc(-c3ccccc3)nc12,-3.44%
6,COc1cccc(-c2noc(-c3cc(Cl)ccc3OC)n2)c1,-2.4%
7,CCOc1nc(SCCOc2ccccc2)nc(N(C)C)n1,-2.03%
8,Cc1cc(N2CCN(c3ccccc3)CC2)nc(-c2ccc(Br)cc2)n1,5.03%
9,CCN(CC)S(=O)(=O)c1ccc(N/C=C2\C(=O)N(C)C(=O)C(C#N)=C2C)cc1,2.36%
10,C=CCOc1c(Cl)cc(CNc2nc[nH]n2)cc1OC,3.8%
11,CCCc1[nH]nc2c1/C(=N\O)CC(C)(C)C2,-8.21%
12,CCOc1ccccc1/C=C1\N=C(C2CCCCC2)OC1=O,2.28%
13,COc1cc(/C=C/C(=O)C(C)(C)O)cc(OC)c1OC,-4.21%
14,Cc1oc2ncn(C)c(=O)c2c1C(=O)NCc1ccco1,-2.19%
15,CCOc1ccccc1-n1cc2c(c1-c1cccc(C)c1)c(=O)n(C)c(=O)n2C,5.17%
16,COc1ccc(C2C(C#N)=C(N)Oc3[nH]nc(C)c32)cc1COc1ccccc1Cl (centres unmarked),-3.46%
17,COc1cc(/C=C2/C(=N)N3N=C(c4ccccc4Cl)SC3=NC2=O)cc(OC)c1OC,-1.6%
18,CCN1C(=O)NC(=O)/C(=C\c2cn(CC(=O)N3CCCCC3)c3ccccc23)C1=O,-3.06%
19,CC1(C)CC(=O)C2=C(C1)OC(N)=C(C#N)C2c1ccccc1OCc1ccc(Br)cc1 (centres unmarked),-2.88%
20,Cc1ccc(S(=O)(=O)N2CCN(C)CC2)cc1,-3.13%
21,Cc1ccc(CS(=O)(=O)Cc2ccc(C(=O)NCc3ccco3)o2)cc1,5.35%
22,Cc1cccc(NC(=O)c2sc3nc4c(cc3c2N)CCC4)c1,15.6%
23,COC(=O)c1c(-n2cccc2)sc(C)c1C,3.29%
24,CNC(=O)c1cc(-c2ccccc2)c(N2CCCCC2)s1,-2.83%
25,COc1cccc(C2Nc3ccccc3C(=O)N2Cc2ccccc2)c1 (centres unmarked),-7%
26,Cn1c(=O)c2sccc2n2c(CCCC(=O)N3CCC(N4CCCCC4)CC3)nnc12,-4.76%

row,Compound,% Inhibition @ 10 uM
1,CCCCn1cnc2scc(-c3ccccc3)c2c1=O,-5.35%
2,COc1ccc(C2CC(=O)NC3=C2C(=O)CC(C)(C)C3)c(OC)c1OC (centres unmarked),-8.69%
3,O=C(O)C1C2C=CC(C2)C1C(=O)NCc1ccncc1 (centres unmarked),-2.83%
4,O=S(=O)(NC(c1ccccc1)c1ccccc1)c1ccc(F)cc1,0.827%
5,CC(C)=C1SC(N2CCN(CCC#N)CC2)=NC1=O,2.36%
6,C/C(=N\Cc1ccc2c(c1)OCO2)C1=C(O)c2ccccc2C1=O,-1.92%
7,CCOc1ccc(OCC)c(S(=O)(=O)n2cnc(C)c2)c1,-2.94%
8,CCOC(=O)c1c(C)c(-c2ccccc2)n(CC(=O)N2CCCC(C)C2)c1C (centres unmarked),0.0579%
9,Cc1ccc(C)c(NS(=O)(=O)c2ccc(Cl)cc2)c1,0.135%
10,CCOc1ccc(/C=C/c2nc(C#N)c(N3CCCC3)o2)cc1,-2.57%
11,CCN(CC)C(=O)c1c(C)oc2cc3c(N(CC)CC)c(C)oc3cc12,-10.8%
12,Cc1cc(-n2c(SCC(=O)NCc3cccc(Cl)c3)nc3nnc(C)c-3c2N)ccc1Cl,1.42%
13,Clc1ccc(Cl)c(-n2ncc3c2ncn2nc(Cc4ccccc4)nc32)c1,-1.11%
14,Cc1ccc(S(=O)(=O)Oc2cccc3cccnc23)cc1,-4.27%
15,Cc1ccc(OCC(=O)O)c(-n2nc3ccccc3n2)c1,1.92%
16,COc1cccc(C2C3=C(O)CCCC3=NC(C)=C2C(=O)Nc2ccc(F)cc2F)c1 (centres unmarked),-5.34%
17,Cc1nn(CC(=O)N2CCC(C)CC2)c2ccccc12,-4.71%
18,O=C(O)CSc1c2c(nc3cc(C(=O)NCC4COc5ccccc5O4)ccc13)CCCC2 (centres unmarked),9.02%
19,COCCN1C(=O)/C(=C/c2ccc(Cl)s2)S/C1=N\c1ccccc1,-7.3%
20,O=C(CCCCn1c(=O)[nH]c2ccsc2c1=O)NC1CCN(Cc2ccccc2)CC1,-0.228%
21,COc1ccc(C(=O)Nc2nc3ccccc3s2)cc1OC,4.76%
22,Cc1cc2c(o1)-c1c(oc3ccc(Cl)cc13)CCC2(C)c1ccccc1 (centres unmarked),-0.0494%
23,COc1ccc(C(=O)N2CCN(c3ccc(F)cc3)CC2)cc1,1.62%
24,CCOCCCNC(=O)C(NC(=O)c1ccccc1O)c1ccc(Cl)cc1 (centres unmarked),-3.78%
25,CC(C(=O)N1CCN(Cc2ccc3c(c2)OCO3)CC1)N1C(=O)c2ccccc2C1=O (centres unmarked),-2.98%
26,O=C(O)CCCn1cc(NC(=O)COc2ccc(F)cc2)cn1,2.99%

row,Compound,% Inhibition @ 10 uM
1,COc1ccc(OC)c(C(c2c(O)nc(S)nc2O)N2CCCCC2)c1 (centres unmarked),-2.8%
2,N#Cc1c(N)n(-c2ccc3ccccc3c2)c2nc3ccccc3nc12,-0.0372%
3,O=C(CCCc1nnc2n3nc(-c4ccccc4)nc3c3ccccc3n12)NCc1cccnc1,20.1%
4,CC(C)c1nc2sc3c(N4CCOCC4)ncnc3c2c2c1COC(C)(C)C2,-3.13%
5,COc1ccc(C2C(C(C)=O)=C(C)N=c3s/c(=C/c4ccccc4)c(=O)n32)cc1 (centres unmarked),0.35%
6,Nn1cnn2c(SCC(=O)c3ccccc3)nnc12,-2.39%
7,CO/C(O)=C1\C(C)=Nc2nnnn2C1c1cc(Br)ccc1OC (centres unmarked),-3.53%
8,Cc1ccc(C)c(NC(=O)C2CC(=O)N(C3CCCCC3)C2)c1 (centres unmarked),-0.0648%
9,COc1ccc2sc(SC[C@H]3CCCC[C@H]3C(=O)NCC#N)nc2c1,-3.04%
10,C=CCn1c(O)c(CN2CCN(Cc3ccccc3)CC2)c(C)c(C#N)c1=O,-4.04%
11,CSc1ccc(CCNc2ncnc3c2nc2n3CCCCC2)cc1,-6.62%
12,OC1CCN(Cc2cccc3ccccc23)CC1,4.73%
13,CCOc1ccc(S(=O)(=O)Nc2ccc(OC)c(Cl)c2)cc1,3.35%
14,CC(C)C[C@H](NC(=O)OCc1ccccc1)C(=O)NCC(=O)CN(Cc1ccccc1)C(=O)OC(C)(C)C,3.66%
15,CCOc1ccc(N(CC(=O)N2CCCC2)S(=O)(=O)c2ccc(C)cc2)cc1,-8.61%
16,C=CCN1C(=O)N/C(=C/c2cc(Br)ccc2OC)C1=O,-1.02%
17,COc1ccc(/C=C2/SC(=O)N(C(C)C)C2=O)c(C)c1,-5.3%
18,CCCc1nc(C)cc(N2CCOCC2)n1,2.25%
19,COc1ccc(CCNC(=O)c2nonc2NC(C)=O)cc1OC,-10.8%
20,CC(C)n1c(-c2ccccc2)nc2ccccc21,-0.769%
21,O=C(NCc1ccc2c(c1)OCO2)c1cccnc1SCc1ccccc1Cl,2.8%
22,CN1C(=O)C(CC(=O)Nc2ccc(F)cc2)S/C1=N/c1ccccc1 (centres unmarked),-3.83%
23,COc1cc(OC)cc(C(=O)Nc2nc(-c3nnn(-c4cc(C)cc(C)c4)c3C)ns2)c1,-3.76%
24,COc1ccc(C(=O)Nc2cccc(C(F)(F)F)c2)cc1OC,-3.65%
25,O=C(O)CCCC(=O)Nc1nc(-c2ccc(Cl)cc2)cs1,0.687%
26,CCC(C(=O)NCc1ccccc1C)n1ncn2c(cc3occc32)c1=O (centres unmarked),-3.79%

row,Compound,% Inhibition @ 10 uM
1,CC(C)(C)c1ccc(C(=O)NCCSc2c[nH]c3ccccc23)cc1,-0.321%
2,COc1cc(OC)cc(C(=O)N2CCN(Cc3ccc(C(F)(F)F)cc3)CC2)c1,-4.26%
3,CCN1C(=O)c2ccc(C(=O)Nc3ccc(Br)cc3C(=O)O)cc2C1=O,-17.9%
4,COc1ccccc1Cn1cccc1C=O,7.47%
5,Cc1cccc(Oc2nc3c(C)cccn3c(=O)c2/C=C(\C#N)C(=O)NCc2ccco2)c1C,2%
6,CCOc1ccc(S(=O)(=O)Nc2sc3c(c2C(N)=O)CCCCCC3)cc1,9.28%
7,CN(C)CCN(C)Cc1ccccc1C(F)(F)F,1.9%
8,Cc1ccccc1NC(=O)N1CCOCC1,-0.0804%
9,O=C(CSc1ncn(-c2ccccc2)n1)Nc1nccs1,1.96%
10,OC(CNc1ccccc1)Cn1c2ccccc2c2ccccc21 (centres unmarked),0.962%
11,CCn1c2c(c(=O)[nH]c1=O)C(c1ccc(C(C)(C)C)cc1)C1=C(O)c3ccccc3C1=N2 (centres unmarked),-6.55%
12,OCC1OC(n2nnc3ccccc32)C(O)C(O)C1O (centres unmarked),3.35%
13,CC(=O)C(C#N)NC(=O)C(CC(C)C)NC(=O)c1cccc(-c2ccccc2)c1 (centres unmarked),-1.41%
14,COc1ccc2nc(-c3ccccc3)nc(NCCN3CCCC3)c2c1,33.9%
15,Cc1ccc(C)n1-c1nnc(N2CCC(C(=O)NCc3ccc4c(c3)OCO4)CC2)s1,4.33%
16,O=C(O)c1cccc(-c2ccc(CO)o2)c1,0.415%
17,Cc1nc2nc(C)c(CCC(=O)N3CCC4(CC3)OCCO4)c(C)n2n1,4.54%
18,Cc1nc2c(=O)oc3ccccc3c2n1C,4.35%
19,COc1ccc(NC(=O)c2cnn3c(C(F)(F)F)cc(-c4cccc(OC)c4)nc23)cc1,-5.44%
20,Cc1cc(C)c2c(N)c(C(=O)Nc3cccc4ccccc34)sc2n1,9.77%
21,CCCc1cc(O)n2nc(-c3ccco3)nc2n1,-0.671%
22,O=C(O)c1ccc(Nc2nc(-c3ccc(Cl)cc3)cs2)cc1,-3.14%
23,CCN(CC)C(=O)C1CCCN(C/C=C/c2ccccc2)C1 (centres unmarked),0.273%
